{"source": "PubChem BioAssay AID504339", "about": "(National Center for Advancing Translational Sciences (NCATS), 2011)", "note": "Among all 390,000 compounds or so, about 17,000 (4.4%) were called active. This list was built around the results that the source calls inconclusive (neither active nor inactive); the mix of calls is not that of the screen. Calls follow the shape of the dose curve; as a rule, active = well fitted inhibition curve with a large enough effect; inconclusive = small, poorly fitted or top-dose-only effect; inactive = no such curve, though single readings can be large or run the other way. A potency beside an inconclusive call is a rough fit, not a confirmed value. % is scaled to controls: 0 for no effect and ±100 for the full control effect; potency is read from the fitted curve at half-maximal effect; tags tell the direction and shape of the fitted curve.", "data": [{"molecular_target": "Lysine-specific demethylase 4A (Homo sapiens) (UniProt O75164)", "sequence (O75164 whole entry, looked up, the tested form may be a part)": "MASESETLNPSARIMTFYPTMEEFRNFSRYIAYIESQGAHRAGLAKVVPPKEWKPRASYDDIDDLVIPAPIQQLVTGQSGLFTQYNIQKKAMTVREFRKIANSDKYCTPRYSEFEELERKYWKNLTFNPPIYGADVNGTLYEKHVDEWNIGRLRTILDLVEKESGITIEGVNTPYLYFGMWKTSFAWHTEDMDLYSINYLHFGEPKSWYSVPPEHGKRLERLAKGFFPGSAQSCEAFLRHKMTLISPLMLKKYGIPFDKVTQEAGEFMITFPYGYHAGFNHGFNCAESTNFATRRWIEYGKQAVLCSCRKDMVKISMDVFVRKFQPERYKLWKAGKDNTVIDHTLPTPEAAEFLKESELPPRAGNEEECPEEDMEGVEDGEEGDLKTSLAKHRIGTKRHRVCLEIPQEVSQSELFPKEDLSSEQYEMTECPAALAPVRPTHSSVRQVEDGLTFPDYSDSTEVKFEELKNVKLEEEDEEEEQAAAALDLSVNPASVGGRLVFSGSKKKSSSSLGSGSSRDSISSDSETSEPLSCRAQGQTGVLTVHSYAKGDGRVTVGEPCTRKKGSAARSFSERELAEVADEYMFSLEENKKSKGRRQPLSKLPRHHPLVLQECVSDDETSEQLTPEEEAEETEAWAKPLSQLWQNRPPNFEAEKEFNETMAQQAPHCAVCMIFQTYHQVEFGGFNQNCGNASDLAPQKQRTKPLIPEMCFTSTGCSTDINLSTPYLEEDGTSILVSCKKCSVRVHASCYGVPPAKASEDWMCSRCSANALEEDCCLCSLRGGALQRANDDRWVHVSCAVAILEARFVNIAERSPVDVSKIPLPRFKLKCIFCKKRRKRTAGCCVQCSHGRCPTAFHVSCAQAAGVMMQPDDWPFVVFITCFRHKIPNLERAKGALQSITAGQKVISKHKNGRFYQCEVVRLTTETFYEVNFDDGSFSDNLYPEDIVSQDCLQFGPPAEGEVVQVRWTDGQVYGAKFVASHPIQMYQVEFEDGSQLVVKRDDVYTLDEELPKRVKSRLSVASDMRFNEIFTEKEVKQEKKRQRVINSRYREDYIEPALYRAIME", "assay": "qHTS Assay for Inhibitors of JMJD2A-Tudor Domain; also: nearly all actives have a fitted effect of over 50% in size", "conditions": "AlphaScreen JMJD2A-Tudor / H3K4me3 peptide binding; activity change, negative = inhibition: at 114 µM (top of the series)", "values": [{"smiles": "C/C(CC(=O)Nc1ccc(Cl)c(C(F)(F)F)c1)=N\\NC(N)=S", "activity change, negative = inhibition": "inactive: -7.04%"}, {"smiles": "Cc1ccn(-c2cc(O)c(-n3ccc(C)n3)cc2O)n1", "Potency": "inconclusive: 1.12 µM [inhibitor, full curve, poor fit]"}, {"smiles": "CCC(Sc1ncccc1C(=O)Oc1cccc([N+](=O)[O-])c1)C(=O)Nc1ccccc1OC", "note": "(stereo not given)", "Potency": "inconclusive: 15.8 µM [inhibitor, full curve]"}, {"smiles": "O=C(CNc1cc(S(=O)(=O)N2CCOCC2)ccc1NCC1CCCO1)Nc1ccc(C(F)(F)F)cc1", "note": "(stereo not given)", "Potency": "inconclusive: 56.2 µM [inhibitor, partial curve]"}, {"smiles": "CCN(CC1COc2ccccc2O1)C(=O)CN1C(=O)NC(C)(c2ccccc2)C1=O", "note": "(stereo not given)", "activity change, negative = inhibition": "inactive: -16.2%"}, {"smiles": "O=C(COC(=O)CCc1c[nH]c2ccccc12)Nc1cc([N+](=O)[O-])ccc1Cl", "Potency": "inconclusive: 50.1 µM [inhibitor, partial curve]"}, {"smiles": "O=C(c1cnn2c(C(F)F)cc(-c3ccccc3)nc12)N1CCN(Cc2ccc3c(c2)OCO3)CC1", "Potency": "inconclusive: 35.5 µM [inhibitor, partial curve]"}, {"smiles": "Cc1ccccc1-c1cc(C(=O)Nc2sc(C)c(C)c2C(N)=O)c2ccccc2n1", "Potency": "inconclusive: 56.2 µM [inhibitor, partial curve]"}, {"smiles": "O=C(C(c1ccccc1)c1ccccc1)N1CCN(Cc2ccncc2)CC1", "Potency": "inconclusive: 2.24 µM [inhibitor, full curve, poor fit]"}, {"smiles": "O=C1CC(C(=O)O)S/C(=N\\NC(=O)c2ccccc2)N1", "note": "(stereo not given)", "Potency": "active: 1.41 µM"}, {"smiles": "CCCC12CN3CC(C)(CN(C1)C3c1ccco1)C2=O", "note": "(stereo not given)", "Potency": "active: 56.2 µM"}, {"smiles": "COc1cc(CNCCc2c[nH]c3ccccc23)ccc1OCc1ccc(F)cc1", "Potency": "inconclusive: 31.6 µM [inhibitor, partial curve]"}, {"smiles": "COc1ccc(-c2n[nH]c(=S)n2C2CCCCC2)cc1", "Potency": "active: 7.08 µM"}, {"smiles": "S=C(NCC1CCCO1)N1CCN(Cc2ccccc2)CC1", "note": "(stereo not given)", "Potency": "active: 0.891 µM"}, {"smiles": "CC(C)OC(=O)c1c(N)sc2c1CCCC2", "Potency": "inconclusive: 50.1 µM [inhibitor, partial curve]"}, {"smiles": "Cn1c(CNC(=O)OC(C)(C)C)n[nH]c1=S", "Potency": "inconclusive: 39.8 µM [inhibitor, single point]"}, {"smiles": "COc1cccc(-n2ccnc2SCC(=O)N2CCc3ccccc32)c1", "Potency": "inconclusive: 56.2 µM [inhibitor, partial curve, poor fit]"}, {"smiles": "CC(=O)OCC1=C(C(=O)O)N2C(=O)C(NC(=O)c3ccc(COc4c(C)cccc4Cl)o3)C2SC1", "note": "(stereo not given)", "Potency": "inconclusive: 56.2 µM [inhibitor, partial curve]"}, {"smiles": "O=C1C(=O)N(CCN2CCOCC2)C(c2ccccc2)/C1=C(\\O)c1ccc2c(c1)OCCO2", "note": "(stereo not given)", "Potency": "inconclusive: 28.2 µM [inhibitor, partial curve]"}, {"smiles": "CC(c1ccc(F)cc1)n1c(Cn2ncc3ccccc3c2=O)n[nH]c1=S", "note": "(stereo not given)", "Potency": "active: 12.6 µM"}, {"smiles": "COc1ccc(NC(=O)CSc2nc(C)cs2)c([N+](=O)[O-])c1", "Potency": "inconclusive: 56.2 µM [inhibitor, partial curve]"}, {"smiles": "Cn1cc(CN2CCCC(C(=O)c3cc(F)ccc3F)C2)c2ccccc21", "note": "(stereo not given)", "Potency": "inconclusive: 56.2 µM [inhibitor, partial curve]"}, {"smiles": "COC(=O)c1ccc[n+](CC(=O)Nc2ccc(OC(F)F)cc2)c1", "Potency": "inconclusive: 6.31 µM [inhibitor, full curve, poor fit]"}, {"smiles": "Cc1cc(C(=O)NCC(c2ccco2)N(C)C)ccc1[N+](=O)[O-]", "note": "(stereo not given)", "activity change, negative = inhibition": "inactive: -31.8%"}, {"smiles": "CC1=NN(c2nc(-c3ccc(C)cc3)cs2)C(=O)C1N=Nc1cccc(O)c1", "note": "(stereo not given)", "Potency": "active: 14.1 µM"}, {"smiles": "Cc1ccc(-n2cc[nH]c2=S)cc1C", "Potency": "active: 35.5 µM"}, {"smiles": "Cc1ccc(-c2csc(NCCn3c(-c4ccncc4)nc4cc(C(F)(F)F)ccc43)n2)cc1", "activity change, negative = inhibition": "inactive: -33.6%"}, {"smiles": "Nc1scc2c(C(=O)O)nn(-c3ccccc3)c(=O)c12", "Potency": "active: 79.4 µM"}, {"smiles": "COc1ccc(C(=O)Nc2ccc(O)c3ccccc23)cc1", "Potency": "inconclusive: 79.4 µM [inhibitor, partial curve]"}, {"smiles": "COC(=O)/C(=C/Nc1ccc(O)cc1)[N+](=O)[O-]", "Potency": "inconclusive: 89.1 µM [inhibitor, single point]"}, {"smiles": "Cc1cc(C(=O)COC(=O)c2ccc(O)cc2)c(C)n1-c1ccccc1F", "Potency": "inconclusive: 56.2 µM [inhibitor, partial curve]"}, {"smiles": "BrC(/C=N/N1CCN(Cc2ccccc2)CC1)=C/c1ccccc1", "Potency": "active: 39.8 µM"}, {"smiles": "CCn1nc([N+](=O)[O-])c(C(C#N)c2nc3cc(C(F)(F)F)ccc3s2)c(Cl)c1=O", "note": "(stereo not given)", "Potency": "active: 28.2 µM"}, {"smiles": "COc1ccccc1/C=C/C=C(\\C#N)C(=O)NC(C)c1ccccc1", "note": "(stereo not given)", "activity change, negative = inhibition": "inactive: -23.3%"}, {"smiles": "O=C(N/C(=C/c1cccc([N+](=O)[O-])c1)C(=O)N1CCCCCC1)c1cccs1", "Potency": "inconclusive: 79.4 µM [inhibitor, partial curve]"}, {"smiles": "O=C(Nc1cccc(S(=O)(=O)NC2=NCCCCC2)c1)C1COc2ccccc2O1", "note": "(stereo not given)", "Potency": "inconclusive: 50.1 µM [inhibitor, partial curve]"}, {"smiles": "Cc1ccc(CNc2ccc(N3CCOCC3)c(Cl)c2)cc1", "Potency": "inconclusive: 31.6 µM [inhibitor, full curve]"}, {"smiles": "CN(C)c1ccc(/C=N\\NC(=S)SCN2C(=O)C3CCC(C)(C2=O)C3(C)C)cc1", "note": "(stereo not given)", "Potency": "inconclusive: 20 µM [inhibitor, full curve]"}, {"smiles": "O=c1[nH][nH]c(=O)c2nc(Nc3ccccc3)ncc12", "Potency": "inconclusive: 31.6 µM [inhibitor, single point]"}, {"smiles": "O=C(/C=C/c1ccc2c(c1)OCO2)Nc1c(C(=O)O)[nH]c2ccccc12", "Potency": "inconclusive: 89.1 µM [inhibitor, partial curve]"}, {"smiles": "Oc1ccc(/C=C/c2ccccc2F)c2cccnc12", "Potency": "inconclusive: 15.8 µM [inhibitor, full curve]"}, {"smiles": "COC(=O)CC1C(=O)NCCN1C(=S)NC(=O)C(c1ccccc1)c1ccccc1", "note": "(stereo not given)", "Potency": "inconclusive: 89.1 µM [inhibitor, single point]"}, {"smiles": "O=C(O)c1ccc(N2Cc3ccccc3C2)cc1O", "Potency": "inconclusive: 89.1 µM [inhibitor, partial curve]"}, {"smiles": "O=C1Nc2ccccc2Oc2cc([N+](=O)[O-])ccc21", "Potency": "inconclusive: 50.1 µM [inhibitor, partial curve, poor fit]"}, {"smiles": "Cc1nn(CCCC(=O)Nc2cc(Oc3ccccc3)cc([N+](=O)[O-])c2)c(C)c1[N+](=O)[O-]", "Potency": "inconclusive: 20 µM [inhibitor, full curve]"}, {"smiles": "CCCCc1nc2cc(C(=O)N3CCCCC3C(=O)OC)ccc2o1", "note": "(stereo not given)", "Potency": "active: 22.4 µM"}, {"smiles": "CC1(C)N([O-])C(c2ccccc2)=C[N+](=O)C1(C)C", "Potency": "inconclusive: 100 µM [inhibitor, single point]"}, {"smiles": "CCCCn1c(N)c(N(Cc2ccccc2OC)C(=O)C(C)Oc2ccc(Cl)cc2)c(=O)[nH]c1=O", "note": "(stereo not given)", "activity change, negative = inhibition": "inactive: -11.1%"}, {"smiles": "COc1cc(C2C=C(Nc3ccccc3)C(=O)N2c2ccccc2)ccc1O", "note": "(stereo not given)", "Potency": "inconclusive: 56.2 µM [inhibitor, partial curve]"}, {"smiles": "CCCN1C(=O)CC(C(=O)OC)=C1C", "activity change, negative = inhibition": "inactive: -0%"}, {"smiles": "CC(=O)C(=Nc1ccccc1Cl)NNc1ccc(Cl)cc1", "Potency": "active: 31.6 µM"}, {"smiles": "CCOC(=O)CNC(=O)CSc1nnc(-c2ccccc2)n1Cc1ccco1", "Potency": "active: 44.7 µM"}, {"smiles": "COCCN(C/C=C/c1ccccc1)C/C=C/c1ccccc1", "Potency": "active: 1 µM"}, {"smiles": "[O-]/[N+](=C\\c1ccccc1)[C@@H]1CCCC[C@@H]1/[N+]([O-])=C/c1ccccc1", "Potency": "inconclusive: 22.4 µM [inhibitor, full curve]"}, {"smiles": "CCN(CC)c1ccc(NC(=O)C2=CCN(S(=O)(=O)c3ccc(F)cc3)CC2)c(C)c1", "Potency": "inconclusive: 28.2 µM [inhibitor, full curve]"}, {"smiles": "CCNC(=S)N/N=C/c1cc(C)n(-c2ccc(Cl)cc2)c1C", "Potency": "active: 50.1 µM"}, {"smiles": "O=C(OCC(=O)N1CCN(c2ccccc2)CC1)c1cccs1", "activity change, negative = inhibition": "inactive: -17.9%"}, {"smiles": "COc1cc(C=NNc2nc3c([nH]2)c(=O)n(C)c(=O)n3C)ccc1O", "activity change, negative = inhibition": "inactive: -14.5%"}, {"smiles": "Cc1cc(C(=O)COC(=O)c2cc(Cl)ccc2N)c(C)n1Cc1ccco1", "Potency": "inconclusive: 56.2 µM [inhibitor, partial curve]"}, {"smiles": "CCOc1ccccc1NC(=O)c1c(NC(=O)COc2ccccc2)sc2c1CCCCC2", "activity change, negative = inhibition": "inactive: -5.88%"}, {"smiles": "O=[N+]([O-])c1ccccc1S(=O)(=O)NCCC1=CCCCC1", "Potency": "inconclusive: 56.2 µM [inhibitor, partial curve, poor fit]"}, {"smiles": "Cc1ccc(N2NC(=O)/C(=C/C=C/c3ccco3)C2=O)cc1C", "Potency": "inconclusive: 20 µM [inhibitor, full curve]"}, {"smiles": "COc1cccc(OCc2cc(C(=O)N3CCNC(=O)C3Cc3ccccc3)no2)c1", "note": "(stereo not given)", "activity change, negative = inhibition": "inactive: -9.85%"}, {"smiles": "OCCNc1ncnc2oc(-c3ccco3)c(-c3ccco3)c12", "Potency": "inconclusive: 50.1 µM [inhibitor, partial curve]"}, {"smiles": "CC(=O)Nc1ccc(S(=O)(=O)Oc2ccc(/C=N/N=C3/NC(=O)C(CC(=O)O)S3)cc2)cc1", "note": "(stereo not given)", "Potency": "inconclusive: 17.8 µM [inhibitor, partial curve]"}, {"smiles": "COc1ccc(C)cc1Nc1nc(N)c2ccccc2n1", "activity change, negative = inhibition": "inactive: -31.9%"}, {"smiles": "CC(C)c1ccc(-c2nnc(SCC(=O)NC3CC3)n2C)cc1", "activity change, negative = inhibition": "inactive: 0.685%"}, {"smiles": "COc1cccc(C(C(=O)NC(C)(C)C)N(Cc2ccc(C)cc2)C(=O)CCC(=O)Nc2cc(C)on2)c1OC", "note": "(stereo not given)", "Potency": "inconclusive: 35.5 µM [inhibitor, partial curve]"}, {"smiles": "Cc1cc(C(=O)N/N=C/c2ccc(-c3cccc(Cl)c3Cl)o2)n[nH]1", "Potency": "inconclusive: 70.8 µM [inhibitor, single point]"}, {"smiles": "COc1ccc(NC(=S)NCCc2c[nH]c3ccc(OC)cc23)c(OC)c1", "Potency": "inconclusive: 39.8 µM [inhibitor, partial curve]"}]}]}
